Test results as given in the supplement of paper PMC8728848.
The list shows a part of the results.

Experiments:
Experiment in all cases: glycan array binding signal (z-score within array); higher = stronger binding
Conditions in all cases: glycan notation: IUPAC condensed, linker removed
[1] = molecular target: Glc(b1-4)Glc(b1-4)Glc(b1-3)Glc
Method in brief: (§1)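 From the Consortium for Functional Glycomics database, 3228 arrays were curated, keeping only those whose protein sequence was available. Binding is given as a within-array Z-score averaged across arrays sharing a protein sequence and across linkers. Negative Z-scores can be read as non-binding.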

[2] = molecular target: Glc(b1-4)Glc(b1-4)Glc(b1-3)Glc(b1-4)Glc(b1-4)Glc(b1-3)Glc
Method in brief: as §1

[3] = molecular target: Glc(b1-4)Glc(b1-4)Glc(b1-4)Glc
Method in brief: as §1

[4] = molecular target: Glc(b1-4)Glc(b1-4)Glc(b1-4)Glc(b1-3)Glc
Method in brief: as §1

[5] = molecular target: Glc(b1-4)Glc(b1-4)Glc(b1-4)Glc(b1-4)Glc
Method in brief: as §1

[6] = molecular target: Glc(b1-4)Glc(b1-4)Glc(b1-4)Glc(b1-4)Glc(b1-4)Glc
Method in brief: as §1

[7] = molecular target: Glc(b1-4)Glc(b1-4)Glc(b1-4)Glc(b1-4)Glc(b1-4)Glc(b1-4)Glc
Method in brief: as §1

[8] = molecular target: Glc(b1-4)Glc(b1-4)Glc(b1-4)Glc(b1-4)Glc(b1-4)Glc(b1-4)Glc(b1-4)Glc
Method in brief: as §1

[9] = molecular target: Glc(b1-4)Glc(b1-4)Glc(b1-4)Glc(b1-4)Glc(b1-4)Glc(b1-4)Glc(b1-4)Glc(b1-4)Glc
Method in brief: as §1

[10] = molecular target: Glc(b1-4)Glc(b1-4)Glc(b1-4)Glc(b1-4)Glc(b1-4)Glc(b1-4)Glc(b1-4)Glc(b1-4)Glc(b1-4)Glc
Method in brief: as §1

[11] = molecular target: Glc(b1-4)Glc(b1-4)Glc(b1-4)Glc(b1-4)Glc(b1-4)Glc(b1-4)Glc(b1-4)Glc(b1-4)Glc(b1-4)Glc(b1-4)Glc
Method in brief: as §1

[12] = molecular target: Glc(b1-4)Glc(b1-4)Glc(b1-4)Glc(b1-4)Glc(b1-4)Glc(b1-4)Glc(b1-4)Glc(b1-4)Glc(b1-4)Glc(b1-4)Glc(b1-4)Glc
Method in brief: as §1

[13] = molecular target: Glc(b1-4)Glc(b1-4)Glc(b1-4)Glc(b1-4)Glc(b1-4)Glc(b1-4)Glc(b1-4)Glc(b1-4)Glc(b1-4)Glc(b1-4)Glc(b1-4)Glc(b1-4)Glc
Method in brief: as §1

Glc(b1-6)Glc = molecular target: Glc(b1-6)Glc
Method in brief: as §1

Glc(b1-6)Glc(b1-6)Glc = molecular target: Glc(b1-6)Glc(b1-6)Glc
Method in brief: as §1

[14] = molecular target: Glc(b1-6)Glc(b1-6)Glc(b1-6)Glc
Method in brief: as §1

[15] = molecular target: Glc(b1-6)Glc(b1-6)Glc(b1-6)Glc(b1-6)Glc
Method in brief: as §1

[16] = molecular target: Glc(b1-6)Glc(b1-6)Glc(b1-6)Glc(b1-6)Glc(b1-6)Glc
Method in brief: as §1

[17] = molecular target: Glc(b1-6)Glc(b1-6)Glc(b1-6)Glc(b1-6)Glc(b1-6)Glc(b1-6)Glc
Method in brief: as §1

[18] = molecular target: Glc(b1-6)Glc(b1-6)Glc(b1-6)Glc(b1-6)Glc(b1-6)Glc(b1-6)Glc(b1-6)Glc
Method in brief: as §1

[19] = molecular target: Glc(b1-6)Glc(b1-6)Glc(b1-6)Glc(b1-6)Glc(b1-6)Glc(b1-6)Glc(b1-6)Glc(b1-6)Glc
Method in brief: as §1

[20] = molecular target: Glc(b1-6)Glc(b1-6)Glc(b1-6)Glc(b1-6)Glc(b1-6)Glc(b1-6)Glc(b1-6)Glc(b1-6)Glc(b1-6)Glc
Method in brief: as §1

[21] = molecular target: Glc(b1-6)Glc(b1-6)Glc(b1-6)Glc(b1-6)Glc(b1-6)Glc(b1-6)Glc(b1-6)Glc(b1-6)Glc(b1-6)Glc(b1-6)Glc
Method in brief: as §1

[22] = molecular target: Glc(b1-6)Glc(b1-6)Glc(b1-6)Glc(b1-6)Glc(b1-6)Glc(b1-6)Glc(b1-6)Glc(b1-6)Glc(b1-6)Glc(b1-6)Glc(b1-6)Glc(b1-6)Glc(b1-6)Glc(b1-6)Glc
Method in brief: as §1

[23] = molecular target: Man(b1-4)Man(b1-4)Man(b1-4)Man
Method in brief: as §1

[24] = molecular target: Man(b1-4)Man(b1-4)Man(b1-4)Man(b1-4)Man
Method in brief: as §1

[25] = molecular target: Man(b1-4)Man(b1-4)Man(b1-4)Man(b1-4)Man(b1-4)Man
Method in brief: as §1

[26] = molecular target: Xyl(b1-4)Xyl(b1-4)Xyl(b1-4)Xyl(b1-4)Xyl
Method in brief: as §1

[27] = molecular target: Xyl(b1-4)Xyl(b1-4)Xyl(b1-4)Xyl(b1-4)Xyl(b1-4)Xyl
Method in brief: as §1

B1: Unk16A (Cellvibrio mixtus), Q336L6 (protein)
chain: VAYNTTGASSSAASSSAPSSASSSSSSAAPVLLSQGRPVTASSNFQPAANAVDGNGGTRWESTHGVSPSWIMVDLGSSKNLSQVIIDWEAANAANYLVQASNNGMSWTTLKIITTGAFGDRTDTHSVAGNYRYVRIYATARSAGNQWGYSIWELKITGN
- glycan array binding signal (z-score) [1]: -0.192
- glycan array binding signal (z-score) [2]: -0.001
- glycan array binding signal (z-score) [3]: -0.382
- glycan array binding signal (z-score) [4]: -0.222
- glycan array binding signal (z-score) [5]: -0.479
- glycan array binding signal (z-score) [6]: -0.582
- glycan array binding signal (z-score) [7]: -0.449
- glycan array binding signal (z-score) [8]: -0.398
- glycan array binding signal (z-score) [9]: 0.1
- glycan array binding signal (z-score) [10]: -0.167
- glycan array binding signal (z-score) [11]: -0.292
- glycan array binding signal (z-score) [12]: -0.414
- glycan array binding signal (z-score) [13]: -0.398
- glycan array binding signal (z-score) (Glc(b1-6)Glc): -0.397
- glycan array binding signal (z-score) (Glc(b1-6)Glc(b1-6)Glc): -0.248
- glycan array binding signal (z-score) [14]: 0.035
- glycan array binding signal (z-score) [15]: 0.274
- glycan array binding signal (z-score) [16]: -0.017
- glycan array binding signal (z-score) [17]: -0.204
- glycan array binding signal (z-score) [18]: -0.21
- glycan array binding signal (z-score) [19]: -0.141
- glycan array binding signal (z-score) [20]: 0.062
- glycan array binding signal (z-score) [21]: -0.49
- glycan array binding signal (z-score) [22]: -0.169
- glycan array binding signal (z-score) [23]: -0.58
- glycan array binding signal (z-score) [24]: -0.593
- glycan array binding signal (z-score) [25]: -0.655
- glycan array binding signal (z-score) [26]: -0.659
- glycan array binding signal (z-score) [27]: -0.658
